Assay results from the supplement of paper PMC10126150.
Values marked as one replicate rest on one cluster of the flow cell; about a third of the high ones do not repeat.

Tested on: ATP
Experiment: switch fluorescence ratio, 500 uM ATP over buffer (Cy3 cluster intensity, sum of 5 cycles each) (fold (ratio)); higher = stronger signal-on switching upon ATP binding; sequences stand for … in TCGTCGGCAGCGTCAGATGTGTATAAGAGACAGTTTTTTTTTTTTTTTTTTTTTTTTT…TC
Details: aptamer strand: ATP DNA aptamer (quencher-CACCTGGGGGAGTATTGCGGAGGAAGG + anchor), 100 nM annealed; ATP concentration: 500 uM; one replicate
Outline: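 Five buffer/ATP imaging cycles were run on Cy3-labelled switching-strand clusters on a modified Illumina MiSeq flow-cell, with NaOH stripping and re-annealing between cycles. In each cycle, clusters annealed to 100 nM quencher-labelled ATP aptamer were imaged in selection buffer, then after 15 min with 500 uM ATP at 22 °C. Per cluster, the fluorescence ratio is summed target-cycle over summed buffer-cycle Cy3 intensity, averaged per switch-domain sequence. Only clusters within 100-1000 RFU were kept.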
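Also: ATP exposure 15 min at 22 °C before imaging.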

Sequence | switch fluorescence ratio
TCGGTGCTAT | 1.01
ATTTAAAGGA | 1
CAGGATAAGT | 1.01
GCGGTGTTAT | 1.11
TCCACTATCT | 0.994
ATCGTCACGC | 1.04
GAACGGCCTG | 1.07
ATATT | 1.01
TTCTTCTAAG | 1.05
TATATTCAGC | 1.01
CATGGCCTAA | 1.02
CATAAACCTG | 1.13
TTCTAATGT | 0.98
CAAAACGGGT | 1.01
ACCTACCCCC | 1.91
TGTGTATGC | 0.975
GGGCATCATT | 0.973
CTCCTGTTAC | 1.09
TGGGCAAAAC | 0.954
ACCGCATAAG | 2.39
TTCCTGGTTT | 0.994
CATTTTCGCG | 1.03
GGTTGATCTT | 0.986

Sequence | switch fluorescence ratio
CAGTATATTA | 1
AGCTTCCCCC | 1.7
CGCCCACCTG | 1.07
CGTCGCAGCG | 1
TAAATAAGTG | 1.02
GGTGCTTATT | 1
AATGTTCGTC | 0.984
ACGTCTAGGG | 1.02
TTTCAACGTA | 1.04
TTCTTGGCTA | 0.976
TATCGACATC | 1.09
AATTAAATG | 1.04
TTGAGTCTAA | 0.986
GAAAAATAAT | 0.969
CCTAACTAG | 0.984
GAATCTACGG | 1.07
TGGCTTGGCA | 1.02
GGGACCCGTC | 0.943
TATAGAATTC | 1.04
CGTTCCTATG | 1.09
AGAAACGTCG | 1.11
TTAAGTCAGC | 1.05
ACGAGGGAC | 1.04

Sequence | switch fluorescence ratio
CACATGAGGC | 0.917
AATGTTTAGA | 1.01
TACATTCGCT | 1.11
CCAGTCTGCA | 1.17
ACAGAGTCGT | 0.973
TTAATCCTAG | 0.978
GCGGATCGCA | 1.01
TACTGTACGA | 1.43
TCCTTGATAA | 1.04
TTTAAGTTGT | 0.971
ACTAAGCAAG | 1.33
GGCGAGTCTT | 0.965
AAGACGTTT | 1.04
CTTAAGGACT | 0.972
AACGGGTGGA | 1.06
ACGGACGATC | 1.29
GGTAACATTC | 1.03
CTCGAATTTG | 0.995
CCCTATAGGC | 0.98
GAACTTGCGG | 1.03
GGTCAGAAAG | 1.02
